Source: the supplement of paper PMC12217912
This is one part of the list. Sequences were assembled here from the parent chain. Values near 0.05 are background.

B1: TEV protease; numbered along this chain (parent)
chain: MGESLFKGPRDYNPISSSICHLTNESDGHTTSLYGIGFGPFIITNKHLFRRNNGTLVVQSLHGVFKVKDTTTLQQHLVDGRDMIIIRMPKDFPPFPQKLKFREPQREERICLVTTNFQTKSMSSMVSDTSCTFPSGDGIFWKHWIQTKDGQCGSPLVSTRDGFIVGIHSASNFTNTNNYFTSVPKNFMELLTNQEAQQWVSGWRLNADSVLWGGHKVFMVKPEEPFQPVKEATQL

Variants of: B1
Test: raw area under fraction-flipped curve 0-4 h after induction (AUC4h, not background-subtracted), DNA-recorder readout of cleavage of the substrate (dimensionless); higher = more cleavage of the substrate by the protease variant
Settings: temperature: 34 °C; time window: 0-4 h after rhamnose induction
Procedure: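 In vivo DNA recorder in E. coli TOP10(DE3) ΔrhaA at 34 °C. Each TEVp single-site mutant (parent TEVp 0) is paired with a single-site variant of the 7-mer TEVs (canonical ENLYFQ|S). The substrate sits between flexible linkers in a Bxb1-sfGFP-TEVs-SsrA fusion, so cleavage stabilises Bxb1 and speeds flipping of a recombination array, read by NGS. The value is the raw area under the fraction-flipped curve over 0-4 h after rhamnose induction (AUC4h), with ≥20 reads per time point. It is not background-subtracted; inactive controls average about 0.047.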
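Further: Bxb1 expression induced with 0.2% (w/v) L-rhamnose at OD600 near 0.5, cultures sampled hourly, flipped fraction per protease–substrate barcode pair counted by paired-end Illumina sequencing.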

Row | Variant | area with substrate ENLYAQS | area with substrate ENLYCQS | area with substrate ENLYDQS | area with substrate ENLYEQS | area with substrate ENLYGQS | area with substrate ENLYHQS | area with substrate ENLYIQS | area with substrate ENLYKQS | area with substrate ENLYMQS | area with substrate ENLYNQS | area with substrate ENLYQQS | area with substrate ENLYRQS | area with substrate ENLYSQS | area with substrate ENLYVQS | area with substrate ENLYWQS | area with substrate ENLYLQS | area with substrate ENLYPQS | area with substrate ENLYTQS | area with substrate ENLYYQS
1 | MGESLFKGPRDYNPISSSICHLTNESDGHTTSLYGIGFGPFFITNKHLFRRNNGTLVVQSLHGVFKVKDTTTLQQHLVDGRDMIIIRMPKDFPPFPQKLKFREPQREERICLVTTNFQTKSMSSMVSDTSCTFPSGDGIFWKHWIQTKDGQCGSPLVSTRDGFIVGIHSASNFTNTNNYFTSVPKNFMELLTNQEAQQWVSGWRLNADSVLWGGHKVFMVKPEEPFQPVKEATQL [I42F] | 0.0237 | 0.0637 | 0.0463 | 0.058 | 0.0592 | 0.0543 | 0.0753 | 0.0345 | 0.0673 | 0.0533 | 0.0504 | 0.0582 | 0.0607 | 0.0692 | 0.0674 |  |  |  | 
2 | MGESLFKGPRDYNPISSSICHLTNESDGHTTSLYGIGFGPFRITNKHLFRRNNGTLVVQSLHGVFKVKDTTTLQQHLVDGRDMIIIRMPKDFPPFPQKLKFREPQREERICLVTTNFQTKSMSSMVSDTSCTFPSGDGIFWKHWIQTKDGQCGSPLVSTRDGFIVGIHSASNFTNTNNYFTSVPKNFMELLTNQEAQQWVSGWRLNADSVLWGGHKVFMVKPEEPFQPVKEATQL [I42R] | 0.0476 | 0.0306 | 0.0492 | 0.0458 | 0.0344 | 0.0496 | 0.044 | 0.0429 | 0.0477 | 0.0534 | 0.0552 | 0.0497 | 0.0722 | 0.0577 | 0.043 | 0.0474 | 0.0471 | 0.0456 | 0.0441
3 | MGESLFKGPRDYNPISSSICHLTNESDGHTTSLYGIGFGPFIATNKHLFRRNNGTLVVQSLHGVFKVKDTTTLQQHLVDGRDMIIIRMPKDFPPFPQKLKFREPQREERICLVTTNFQTKSMSSMVSDTSCTFPSGDGIFWKHWIQTKDGQCGSPLVSTRDGFIVGIHSASNFTNTNNYFTSVPKNFMELLTNQEAQQWVSGWRLNADSVLWGGHKVFMVKPEEPFQPVKEATQL [I43A] | 0.0732 |  | 0.0423 | 0.06 |  | 0.0637 | 0.0763 | 0.0732 | 0.0744 | 0.058 | 0.0571 | 0.0556 | 0.0576 | 0.0993 | 0.0601 | 0.0774 | 0.0647 |  | 0.0495
4 | MGESLFKGPRDYNPISSSICHLTNESDGHTTSLYGIGFGPFILTNKHLFRRNNGTLVVQSLHGVFKVKDTTTLQQHLVDGRDMIIIRMPKDFPPFPQKLKFREPQREERICLVTTNFQTKSMSSMVSDTSCTFPSGDGIFWKHWIQTKDGQCGSPLVSTRDGFIVGIHSASNFTNTNNYFTSVPKNFMELLTNQEAQQWVSGWRLNADSVLWGGHKVFMVKPEEPFQPVKEATQL [I43L] | 0.0542 |  | 0.0638 | 0.0792 | 0.0658 |  | 0.133 | 0.0521 | 0.0892 | 0.0779 | 0.061 | 0.0828 | 0.0604 | 0.0955 | 0.0666 |  | 0.0656 |  | 0.0782
5 | MGESLFKGPRDYNPISSSICHLTNESDGHTTSLYGIGFGPFIITTKHLFRRNNGTLVVQSLHGVFKVKDTTTLQQHLVDGRDMIIIRMPKDFPPFPQKLKFREPQREERICLVTTNFQTKSMSSMVSDTSCTFPSGDGIFWKHWIQTKDGQCGSPLVSTRDGFIVGIHSASNFTNTNNYFTSVPKNFMELLTNQEAQQWVSGWRLNADSVLWGGHKVFMVKPEEPFQPVKEATQL [N45T] | 0.0633 | 0.087 | 0.0633 | 0.0689 | 0.0552 | 0.0567 | 0.0719 | 0.0333 | 0.0786 | 0.0627 | 0.0713 | 0.0522 | 0.0676 | 0.104 | 0.0599 | 0.0685 | 0.0564 | 0.0697 | 0.0475
6 | MGESLFKGPRDYNPISSSICHLTNESDGHTTSLYGIGFGPFIITNAHLFRRNNGTLVVQSLHGVFKVKDTTTLQQHLVDGRDMIIIRMPKDFPPFPQKLKFREPQREERICLVTTNFQTKSMSSMVSDTSCTFPSGDGIFWKHWIQTKDGQCGSPLVSTRDGFIVGIHSASNFTNTNNYFTSVPKNFMELLTNQEAQQWVSGWRLNADSVLWGGHKVFMVKPEEPFQPVKEATQL [K46A] | 0.0952 | 0.127 | 0.0593 | 0.0779 | 0.0686 | 0.072 |  | 0.052 | 0.0648 | 0.0808 | 0.0795 | 0.0669 |  | 0.143 |  | 0.0858 | 0.0705 | 0.113 | 
7 | MGESLFKGPRDYNPISSSICHLTNESDGHTTSLYGIGFGPFIITNMHLFRRNNGTLVVQSLHGVFKVKDTTTLQQHLVDGRDMIIIRMPKDFPPFPQKLKFREPQREERICLVTTNFQTKSMSSMVSDTSCTFPSGDGIFWKHWIQTKDGQCGSPLVSTRDGFIVGIHSASNFTNTNNYFTSVPKNFMELLTNQEAQQWVSGWRLNADSVLWGGHKVFMVKPEEPFQPVKEATQL [K46M] | 0.0754 | 0.0914 | 0.059 | 0.0663 | 0.0616 | 0.063 | 0.086 | 0.0577 |  | 0.0552 | 0.0132 | 0.0613 |  | 0.11 |  | 0.0766 | 0.0638 | 0.0737 | 0.0519
8 | MGESLFKGPRDYNPISSSICHLTNESDGHTTSLYGIGFGPFIITNKHLARRNNGTLVVQSLHGVFKVKDTTTLQQHLVDGRDMIIIRMPKDFPPFPQKLKFREPQREERICLVTTNFQTKSMSSMVSDTSCTFPSGDGIFWKHWIQTKDGQCGSPLVSTRDGFIVGIHSASNFTNTNNYFTSVPKNFMELLTNQEAQQWVSGWRLNADSVLWGGHKVFMVKPEEPFQPVKEATQL [F49A] | 0.0786 |  | 0.0491 | 0.0574 | 0.065 | 0.0579 |  | 0.0606 | 0.0696 |  |  | 0.0548 | 0.0494 | 0.0522 | 0.0528 |  | 0.0543 | 0.0548 | 0.0608
